This note sets out measurements from PubChem BioAssay AID360 (National Center for Advancing Translational Sciences (NCATS), 2006).

About 550 (1.1%) of roughly 48,000 compounds were called active. Another 4% or so got no clear call; they are omitted. No stated cut-off is given here; in the data, active means potency below about 15 µM; inconclusive means mostly about 16 µM to 33 µM; inactive means weaker than that. The list shows a part of the results.
Potency means the concentration at half of the fitted maximal effect.

UniProt P04062, sequence (P04062 whole entry, looked up): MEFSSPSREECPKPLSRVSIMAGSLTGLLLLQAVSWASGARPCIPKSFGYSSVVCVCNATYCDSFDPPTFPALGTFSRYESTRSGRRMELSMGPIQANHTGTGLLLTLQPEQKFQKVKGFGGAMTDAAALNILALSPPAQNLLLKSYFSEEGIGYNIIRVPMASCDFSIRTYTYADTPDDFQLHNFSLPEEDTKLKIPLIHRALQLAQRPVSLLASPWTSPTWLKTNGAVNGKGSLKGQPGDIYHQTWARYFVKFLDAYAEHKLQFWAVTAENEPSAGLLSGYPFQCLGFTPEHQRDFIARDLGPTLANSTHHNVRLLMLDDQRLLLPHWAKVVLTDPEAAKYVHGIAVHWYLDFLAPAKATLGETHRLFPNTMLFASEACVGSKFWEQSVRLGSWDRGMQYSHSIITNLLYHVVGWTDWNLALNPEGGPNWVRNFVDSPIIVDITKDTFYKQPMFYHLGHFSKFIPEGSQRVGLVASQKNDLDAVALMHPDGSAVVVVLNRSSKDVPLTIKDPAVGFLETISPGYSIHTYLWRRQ

In this experiment the target is Lysosomal acid glucosylceramidase (Homo sapiens) (UniProt P04062). Briefly: Glucocerebrosidase.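 Further: the screen sought inhibitors.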 As to conditions: purified enzyme, resorufin glucoside fluorescence (screen aimed at inhibitors), 20 min. The essentials:
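Wild-type enzyme at 0.2 nM final in 50mM citric acid/KH2PO4, 10mM sodium taurocholate, 0.01% tween-20, pH 5.9, with resorufin beta-D-glucopyranoside at 30 uM final. Compounds titrated, 20 min at RT, red fluorescence read; AC50 from titration.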
For the compound `COc1cc2cc(C)c3nnc(SCC(N)=O)n3c2cc1OC`, the Potency is inactive: > 76.9 µM.

`CCn1nnnc1-c1ccc(OC)c(S(=O)(=O)Nc2ccc(OC)cc2)c1`: the Potency is inactive: > 76.9 µM.

For `COc1ccc2nc(SCC(N)=O)cc(C)c2c1`, the Potency is inactive: > 76.9 µM.

Turning to `O=S(=O)(c1ccccc1)N1CCN(C2CCCCCCC2)CC1`, the Potency was inactive: > 76.9 µM.

Consider `COc1cc(C(=O)O)ccc1OCC(=O)N1CCOCC1`, for which the Potency is inactive: > 76.9 µM.

`Cn1nc(C(=O)OCC(=O)N2CCc3ccccc32)c2ccccc2c1=O`: the Potency is inactive: > 76.9 µM.

For the compound `O=C(CSc1nc2cc(Cl)ccc2s1)NC(=O)NCc1ccco1`, the Potency is inactive: > 76.9 µM.

Regarding `N=c1c(S(=O)(=O)c2ccccc2)cc2c(=O)n3ccccc3nc2n1Cc1ccco1`, the Potency is inactive: > 76.9 µM.

In the case of `N#Cc1cn(CC(=O)NCCc2c[nH]c3ccccc23)c2ccccc12`, the Potency was inactive: > 76.9 µM.

On to `Cc1ccc(N2C(=O)[C@@H]3[C@H](C2=O)C2c4ccccc4C=CN2[C@@H]3C(=O)c2ccco2)cc1` (stereo partly drawn), for which the Potency was inactive: > 76.9 µM.

In the case of `COC(=O)CCCc1nc2ccccc2s1`, the Potency is inactive: > 76.9 µM.

Turning to `Cc1cc(NC(=O)Cn2cnc3sc(C)c(-c4ccccc4)c3c2=O)no1`, the Potency was inactive: > 76.9 µM.

In the case of `C=CCn1c(SCC(=O)Nc2nc(C)cs2)nnc1C(CO)NC(=O)c1ccccc1` (stereo not drawn), the Potency was inactive: > 76.9 µM.

For `O=C(O)c1cc(=O)cc(C(=O)O)[nH]1`, the Potency was inactive: > 76.9 µM.

Regarding `COC(=O)c1ccc(OCCN2C3=NCCN3c3ccccc32)cc1`, the Potency entry was “inactive”.

On to `CCN(CCCNC(=O)C1CCC(=O)N1C1CCCC1)c1cccc(C)c1` (stereo not drawn), for which the Potency is inactive: > 76.9 µM.

Turning to `CC(=O)Nc1cccc(-c2nnc(SCC(=O)N3CCCCC3)n2C)c1`, the Potency was inactive: > 76.9 µM.

In the case of `O=c1c2ccccc2nc2ccc(NCc3ccco3)nn12`, the Potency was inactive: > 76.9 µM.

For the compound `Cn1c(-c2ccc(CN3CCCCC3)o2)nc2ccccc21`, the Potency is inactive: > 76.9 µM.

Take `CCOc1ccc(C2CC(=O)NC3=C2C(=O)CCC3)cc1Cl` (stereo not drawn): the Potency is inactive: > 76.9 µM.

For the compound `c1ccc(CSc2nnc(-c3c[nH]c4ccccc34)o2)cc1`, the Potency was inactive: > 76.9 µM.

As for `COc1cccc(CNCC(=O)N2C(C)CCCC2C)c1` (stereo not drawn), the Potency result is “inactive”.

For the compound `O=C(CSc1nnnn1Cc1ccccc1)NCCc1ccccc1`, the Potency is inactive: > 76.9 µM.

As to `CC(=NC(C)C)C1=C(O)CCC1=O`, the Potency is inactive: > 76.9 µM.

Turning to `Cn1c(=O)c2cc(S(=O)(=O)NCCC(=O)NCCC3=CCCCC3)ccc2n(C)c1=O`, the Potency was inactive: > 76.9 µM.

For the compound `COc1cccc(NC(=O)CSc2nc3ccccc3c(=O)n2CCCC(=O)N2CCCC2)c1`, the Potency was inactive: > 76.9 µM.

For the compound `Cn1c(=O)[nH]c(=O)c2c1nc(Br)n2CCC(=O)c1ccccc1`, the Potency was inactive: > 76.9 µM.

On to `CC(=O)Nc1ccc(C(=O)CSc2nc3ccccc3n2CC(=O)N2CCCC2)cc1`, for which the Potency is inactive: > 76.9 µM.

For the compound `CN(CC(=O)NC1CCCCC1)S(=O)(=O)c1ccc(Cl)cc1`, the Potency was inactive: > 76.9 µM.

Regarding `Cc1ccsc1C1CC(=O)NC2=C1C(=O)CC(C)(C)C2` (stereo not drawn), the Potency is inactive: > 76.9 µM.

For `Cn1ncc(N)c1C(=O)Nc1cccc(C(F)(F)F)c1`, the Potency is inactive: > 76.9 µM.

Consider `CCOC(=O)c1cccc(NC(=O)N[C@@H](C)C(=O)OC)c1`, for which the Potency was inactive: > 76.9 µM.

For the compound `CCn1c(SCC(=O)NCCc2ccc(Cl)cc2)nnc1-c1cccs1`, the Potency is inactive: > 76.9 µM.

As for `O=C1c2ccccc2C(=O)N1CCC(=O)N1CCCc2ccccc21`, the Potency was inactive: > 76.9 µM.

For `Oc1ccccc1-c1cc(-c2cccc(F)c2)n[nH]1`, the Potency is inactive: > 76.9 µM.

As for `CCOc1ccc(NC(=O)c2ccncc2)cc1`, the Potency entry was “inactive”.

As to `CC(C)NC(=O)c1nc2ccccc2s1`, the Potency result was “inactive”.

For the compound `O=C(Nn1cnnc1)C(Sc1ccccc1)c1ccccc1` (stereo not drawn), the Potency is inactive: > 76.9 µM.

As to `COc1ccc(-c2cc3nc4n(c(=O)c3s2)CCC4)cc1`, the Potency was inactive: > 76.9 µM.

For `COc1ccc(C2=NO[C@@H]3C(=O)N(c4c(C)cccc4C)C(=O)[C@H]23)cc1OC`, the Potency is inactive: > 76.9 µM.

For `CCC(C)[C@H](NC(=O)NCc1cccs1)C(=O)OC` (stereo partly drawn), the Potency was inactive: > 76.9 µM.

On to `COCCNC(=O)CN(c1ccc(C)cc1)S(=O)(=O)c1ccccc1`, for which the Potency was inactive: > 76.9 µM.

Regarding `O=C(OCc1nc(-c2ccccc2)oc1COC(=O)c1ccco1)c1ccco1`, the Potency is inactive: > 76.9 µM.

In the case of `COc1ccc(C(=O)n2nc(-c3ccccc3)nc2N)cc1OC`, the Potency was inactive: > 76.9 µM.

In the case of `O=C(OCc1cc2ccccc2[nH]c1=O)c1ccccn1`, the Potency was inactive: > 76.9 µM.

For `CN(Cc1ccccc1)C(=O)c1cccc(NC(=O)c2ccco2)c1`, the Potency was inactive: > 76.9 µM.

As for `CCOCCCNC(=O)C1CCN(S(=O)(=O)N2CCCCC2)CC1`, the Potency is inactive: > 76.9 µM.

For the compound `CCN1CCCC1CNC(=O)C1c2ccccc2C(=O)N(CCOC)C1c1ccc(F)cc1` (stereo not drawn), the Potency is inactive: > 76.9 µM.

For `CCNC(=O)NC(C(=O)OC)C12CC3CC(CC(C3)C1)C2` (stereo not drawn), the Potency is inactive: > 76.9 µM.

Take `CSc1ccc(S(=O)(=O)Nc2c(C)cccc2C)cc1`: the Potency is inactive: > 76.9 µM.

On to `Cc1cc(N2CCN(C(c3ccccc3)c3ccccc3)CC2)n2ncnc2n1`, for which the Potency is inactive: > 76.9 µM.

Take `CCS(=O)(=O)N1CCC(C(=O)N2CCN(c3ccccc3)CC2)CC1`: the Potency was inactive: > 76.9 µM.

On to `CCOC(=O)C1CCCN(Cc2nc(N)nc(Nc3ccccc3)n2)C1` (stereo not drawn), for which the Potency is inactive: > 76.9 µM.

Take `CCOC(=O)N1CCN(Cc2cc(=O)oc3ccc(Cl)cc23)CC1`: the Potency is inactive: > 76.9 µM.

Turning to `O=C1[C@@H]2Cc3ccccc3CN2C(=O)N1c1cccc(F)c1`, the Potency is inactive: > 76.9 µM.

`Cc1ccc(N2C(=O)c3ccccc3C2=O)cc1Cl`: the Potency is inactive: > 76.9 µM.

As to `Cc1ccc(S(=O)(=O)N2CCOCC2)cc1C(=O)NCc1ccco1`, the Potency was inactive: > 76.9 µM.

With `CCN(CC)CCCN1C(=O)c2oc3ccccc3c(=O)c2C1c1cccnc1` (stereo not drawn), the Potency was inactive: > 76.9 µM.

For the compound `COC(=O)c1nc(C(=O)OC)c(C(=O)OC)nc1C(=O)OC`, the Potency is inactive: > 76.9 µM.

In the case of `Cc1cc(C(=O)N2CCCCCC2)cs1`, the Potency is inactive: > 76.9 µM.

Turning to `COc1ccc(-c2cc(C(F)(F)F)nc(SCC(=O)Nc3cc(C)on3)n2)cc1`, the Potency is inactive: > 76.9 µM.

For the compound `CN(C(=O)COC(=O)C1CCN(S(=O)(=O)c2cccs2)CC1)C1CCS(=O)(=O)C1` (stereo not drawn), the Potency is inactive: > 76.9 µM.

With `O=C1[C@@H]2C(c3ccccc3Cl)=NO[C@@H]2C(=O)N1Cc1ccccc1`, the Potency is inactive: > 76.9 µM.

Consider `c1coc(-c2nc3nc4ccccc4n3nc2-c2ccco2)c1`, for which the Potency was inactive: > 76.9 µM.

Regarding `Cc1cc2c(c(=O)o1)C(C(C)C)C(C#N)=C(N)O2` (stereo not drawn), the Potency was inactive: > 76.9 µM.

As for `O=C(Nc1ccc(Cl)cn1)c1ccc(COCC(F)(F)C(F)F)o1`, the Potency result is “inactive”.

For the compound `COc1ccc2[nH]c(=O)c(CN(C(=O)c3ccccn3)c3ccccc3)cc2c1`, the Potency was inactive: > 76.9 µM.

On to `c1ccc(-c2nnc(N3CCN(c4ccccn4)CC3)c3ccccc23)cc1`, for which the Potency is active: 13.6 µM.

Take `COc1ccc(N2CCN(c3oc(-c4ccco4)nc3C#N)CC2)cc1`: the Potency is inactive: > 76.9 µM.

Take `CC(C)(C)c1ccc(C(=O)N2CCC(C(=O)NCc3ccncc3)CC2)cc1`: the Potency was inactive: > 76.9 µM.

In the case of `COc1ccc(C2N3CC4(C)CN2CC(C)(C3)C4)cc1OC` (stereo not drawn), the Potency was inactive: > 76.9 µM.

`O=C(OCn1nnc2ccccc2c1=O)c1cn(-c2ccccc2)nc1-c1cccnc1`: the Potency was inactive: > 76.9 µM.

With `Cc1cc(C(=O)O)ccc1-n1c(C)ccc1C`, the Potency was inactive: > 76.9 µM.

As to `CCNC(=O)N1CCNC(=O)C1CC(=O)OC` (stereo not drawn), the Potency was inactive: > 76.9 µM.

Consider `O=C(O)C1C2C=CC3(O2)C1C(=O)N1c2ccccc2C2OCCC2C13` (stereo not drawn), for which the Potency is inactive: > 76.9 µM.

`CC(C)CCn1nnnc1C(c1ccc(F)cc1)N1CCC(C(N)=O)CC1` (stereo not drawn): the Potency is inactive: > 76.9 µM.

For the compound `CC(C)NS(=O)(=O)c1ccc(OCC(=O)Nc2ccc3c(c2)OCCO3)cc1`, the Potency is inactive: > 76.9 µM.

Take `Nc1ccc(CCc2nc3ccccc3o2)cc1`: the Potency is inactive: > 76.9 µM.

`CCC(C)[C@H](NC(=O)NCc1cccc(OC)c1)C(=O)O` (stereo partly drawn): the Potency is inactive: > 76.9 µM.

In the case of `O=C1CCCc2c1cc(C(=O)NC1CCSC1=O)c(=O)n2-c1ccccc1` (stereo not drawn), the Potency is inactive: > 76.9 µM.

With `Cc1ccc(OCCC(=O)OCC(=O)C(C)(C)C)cc1`, the Potency is inactive: > 76.9 µM.

Take `O=C(NCc1cccs1)c1nc2ncccn2n1`: the Potency is inactive: > 76.9 µM.

With `COc1cccc(S(=O)(=O)NCc2ccc(C(=O)NCC3CCCO3)cc2)c1` (stereo not drawn), the Potency is inactive: > 76.9 µM.

As for `Cc1nn(CC(=O)Nc2ccccc2)c(=O)c2ccccc12`, the Potency is inactive: > 76.9 µM.

With `Cc1ccccc1-c1nnc(SCC(=O)Nc2ccc3c(c2)OCCO3)n1N`, the Potency is inactive: > 76.9 µM.

Take `Cc1ccc(-c2nnc3sc(-c4ccncc4)nn23)cc1`: the Potency was inactive: > 76.9 µM.

With `COc1cccc(C2=NOC(C(=O)NCc3ccccc3)C2)c1` (stereo not drawn), the Potency was inactive: > 76.9 µM.

As for `CCC(C)Sc1nc2c(c(=O)[nH]c(=O)n2C)n1CCc1ccccc1` (stereo not drawn), the Potency is inactive: > 76.9 µM.

As to `Cc1occc1-c1nnc(SCC(=O)NC(C)(C)C)n1C(C)c1ccccc1` (stereo not drawn), the Potency is inactive: > 76.9 µM.

In the case of `COc1ccccc1CNC(=O)CCN1C(=O)COc2ccc(C)cc21`, the Potency is inactive: > 76.9 µM.

In the case of `O=C(c1ccco1)N1CCN(C(=O)C2CCN(S(=O)(=O)Cc3ccccc3)CC2)CC1`, the Potency was inactive: > 76.9 µM.

With `c1ccc2c(N3CCCCC3)nc(N3CCCC3)nc2c1`, the Potency result is “inactive”.

Consider `C=CCn1c(COc2ccc(Cl)cc2)nnc1SCC(=O)N1CC(=O)Nc2ccccc21`, for which the Potency was inactive: > 76.9 µM.
